# From the supplement of paper PMC3334620
# In all, about 33,000 sequences were measured (“E-score (-0.5 to 0.5)”: median about -0.053, highest 2% from about 0.37 on). Some of the results follow.
# Biological target: Hap1 (UniProt P0CE41)
# Test: PBM E-score (8-mer binding enrichment) (E-score (-0.5 to 0.5)); higher = stronger / more preferred TF binding; most listed sequences are background and not binding sites
# Conditions: protein concentration: 200 nM; construct: GST-DNA-binding domain
# Outline: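 PURExpress in vitro transcription/translation supplied GST-tagged yeast transcription factors, either full-length or DNA-binding domain. Applied at about 100-200 nM to universal all-10-mer Agilent arrays double-stranded by primer extension, the bound protein was detected with fluorescent anti-GST. E-scores, modified Wilcoxon-Mann-Whitney statistics, were given by the Universal PBM Analysis Suite to ungapped eight-base words pooled with their reverse complements after masliner normalisation.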
# UniProt P0CE41, sequence (P0CE41 whole entry): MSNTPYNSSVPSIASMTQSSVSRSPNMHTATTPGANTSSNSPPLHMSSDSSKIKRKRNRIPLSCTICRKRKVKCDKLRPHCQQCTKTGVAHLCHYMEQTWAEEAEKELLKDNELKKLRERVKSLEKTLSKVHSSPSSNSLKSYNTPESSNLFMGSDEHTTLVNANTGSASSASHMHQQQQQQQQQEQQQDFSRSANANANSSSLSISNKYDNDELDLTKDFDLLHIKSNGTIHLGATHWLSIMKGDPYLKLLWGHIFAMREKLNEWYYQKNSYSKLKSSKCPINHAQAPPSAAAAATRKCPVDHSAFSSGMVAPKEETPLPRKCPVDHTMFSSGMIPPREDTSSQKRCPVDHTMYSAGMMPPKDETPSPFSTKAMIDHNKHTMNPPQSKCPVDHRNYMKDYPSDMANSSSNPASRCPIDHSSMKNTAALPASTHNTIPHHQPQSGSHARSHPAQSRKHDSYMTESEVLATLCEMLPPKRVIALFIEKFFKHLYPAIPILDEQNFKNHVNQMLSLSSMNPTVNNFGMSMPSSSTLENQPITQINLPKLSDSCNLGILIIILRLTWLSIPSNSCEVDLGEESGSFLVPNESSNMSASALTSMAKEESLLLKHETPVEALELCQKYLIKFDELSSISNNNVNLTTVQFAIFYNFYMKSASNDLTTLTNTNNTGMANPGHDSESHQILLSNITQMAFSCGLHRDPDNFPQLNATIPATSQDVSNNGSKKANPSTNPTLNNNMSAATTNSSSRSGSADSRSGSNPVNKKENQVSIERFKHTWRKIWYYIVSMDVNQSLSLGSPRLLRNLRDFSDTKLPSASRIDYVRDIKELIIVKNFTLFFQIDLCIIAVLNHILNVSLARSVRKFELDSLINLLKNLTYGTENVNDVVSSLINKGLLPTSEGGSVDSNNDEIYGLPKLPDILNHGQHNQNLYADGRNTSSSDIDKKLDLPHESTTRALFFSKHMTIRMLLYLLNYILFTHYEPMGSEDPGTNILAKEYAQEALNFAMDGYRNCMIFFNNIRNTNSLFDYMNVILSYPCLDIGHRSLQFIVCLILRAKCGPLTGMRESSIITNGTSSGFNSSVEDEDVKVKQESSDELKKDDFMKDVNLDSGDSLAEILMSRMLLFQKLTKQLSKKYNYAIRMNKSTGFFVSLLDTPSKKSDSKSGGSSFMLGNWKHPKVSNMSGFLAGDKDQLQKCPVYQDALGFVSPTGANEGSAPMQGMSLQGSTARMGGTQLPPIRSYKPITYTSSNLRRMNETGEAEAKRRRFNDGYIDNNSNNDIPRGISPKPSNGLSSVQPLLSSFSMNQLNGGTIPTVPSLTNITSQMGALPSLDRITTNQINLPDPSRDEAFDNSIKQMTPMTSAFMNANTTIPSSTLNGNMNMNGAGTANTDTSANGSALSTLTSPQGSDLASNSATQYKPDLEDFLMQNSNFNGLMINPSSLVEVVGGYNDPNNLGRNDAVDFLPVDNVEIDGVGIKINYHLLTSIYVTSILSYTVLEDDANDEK
row,Sequence,PBM E-score
1,CAAACGTC,-0.159
2,GCAATCGC,-0.0228
3,ATTGTCTA,0.00639
4,ATCTGATA,-0.153
5,CGTAGGCA,-0.255
6,AATGGCTC,-0.184
7,CCACAATA,-0.0095
8,CTAATTGA,-0.0983
9,TCTCCGAA,0.429
10,AACATACC,0.0198
11,AGATTGAA,-0.0357
12,TCATACCA,-0.237
13,ACAGGATA,-0.209
14,GCGGTAAA,0.292
15,ACCTCCCC,0.0732
16,CCCGCCCG,0.331
17,ATACCTCC,0.14
18,ACGCTCCA,-0.0571
19,ACACTGAA,-0.0306
20,GCGACAAA,-0.0379
21,ATCTCAAA,-0.0143
22,GATATCAA,0.105
23,GAACTGCA,-0.1
24,GACTCCAA,-0.28
25,TGTGGCAA,-0.116

row,Sequence,PBM E-score
1,CATGGGAG,-0.2
2,CAAGACTA,-0.267
3,CGCGGTAG,0.146
4,CCTGACCA,-0.218
5,GCTACAGA,-0.145
6,CAGACTTA,-0.269
7,AACGACAG,-0.22
8,GACGCCAA,-0.256
9,GAAGAGTA,-0.143
10,AAATAGAG,-0.106
11,CCAAGCTA,-0.112
12,CGGGAACA,0.271
13,ACGTGTGG,-0.178
14,CTCGGCAC,0.272
15,CGTTCTGC,0.0618
16,ACCAAGCC,-0.161
17,AGTTGTGG,-0.0781
18,AAGGCTAC,-0.102
19,CCCAGAAA,-0.0782
20,GGGCAAAC,0.154
21,TAGCCGGA,0.407
22,CCAACATC,0.144
23,AAACGAGC,-0.144
24,ACACGTCT,-0.172
25,ATTCACCA,-0.11

row,Sequence,PBM E-score
1,CTTGTACA,-0.293
2,CTACACCA,-0.157
3,AGTTTAAT,-0.0331
4,TCTTGGCA,-0.15
5,AATCTAAG,-0.242
6,AAACCGCT,0.0657
7,ACATGGTC,-0.231
8,CCTGAGCC,-0.283
9,AGGGGTGG,-0.0532
10,GATCAAGC,-0.0163
11,CAAGACTG,-0.233
12,CATCCGTA,0.2
13,GAGCACCA,-0.196
14,CACACGTG,-0.236
15,CCGCCAAG,0.0205
16,CGCCTGGC,-0.0355
17,ACAAGACG,-0.0566
18,CGACTTAA,-0.169
19,CGAACTGC,0.0235
20,GGCAATAA,0.303
21,CTCCTGCC,0.0153
22,AGAAACTG,-0.0846
23,TGTCGAAA,-0.229
24,AGTAAGGG,0.133
25,ATCTAGTG,-0.178

row,Sequence,PBM E-score
1,CAGATTGA,-0.0798
2,CAATAGTG,0.0993
3,GGTGGAGA,-0.103
4,GGAAAGCA,-0.0191
5,CTGGTGAC,-0.288
6,ACCCTGCC,0.00442
7,GGCTCGCA,-0.0127
8,ATTGGAAG,-0.0102
9,GCACAATA,-0.138
10,GATGCGAA,-0.0227
11,ATGTATCC,0.161
12,CCGATTTA,0.344
13,ACCTAAGA,-0.255
14,ACAAATCT,-0.072
15,ATACCATG,-0.115
16,AGGAATAA,-0.0441
17,TCTAGGAA,-0.272
18,GAGAAAGA,0.0531
19,AGCCATCA,-0.165
20,GACTGAAA,-0.0964
21,CGAAAACC,0.212
22,AATATTAT,0.172
23,CGTTAACC,0.132
24,GAACAGCC,-0.0942
25,ACATTCGG,0.278

row,Sequence,PBM E-score
1,CACTTGGA,-0.0892
2,ACTAGTAA,-0.217
3,AGAGTCAC,-0.294
4,CAGGTAGG,-0.0966
5,AGATACTA,0.163
6,AGGCCCTA,0.00667
7,GAGCAAAA,-0.17
8,CACTACGC,-0.167
9,ATCCAGGA,-0.174
10,TGACTACA,-0.287
11,AACCATAC,-0.041
12,CAACTGCG,-0.0825
13,CTCCCTCC,-0.0125
14,AAAGAGGG,-0.168
15,AGCGCTAC,0.112
16,CTGCCATA,0.0233
17,GTAGATGA,-0.148
18,GGCGAAAC,0.194
19,TGGATCCA,-0.00613
20,ATTTGCGC,0.215
21,GATCCCAC,0.0388
22,AATCTTAG,-0.171
23,AGTGTTAT,0.0404
24,CCCATCTA,0.0409
25,ACACCATA,-0.136

row,Sequence,PBM E-score
1,ACTACGTA,0.0393
2,ATGATCCA,-0.0202
3,AGCATATC,-0.0219
4,AATATTGT,-0.0103
5,GCGTTTGA,-0.152
6,AATCTAAC,-0.0965
7,TAACCATA,-0.208
8,AATTCGCC,0.101
9,ATAGCTGC,-0.172
10,GCGGGCAA,0.0958
11,CTACGTGA,-0.165
12,CCCAACTA,-0.0895
13,CCCGAGAG,0.312
14,GGTTGGCA,-0.178
15,CTAAGTCA,-0.185
16,CATTCGTC,-0.0122
17,AAGCCTGA,-0.238
18,GTACTAGA,-0.109
19,CGCGGTCA,0.208
20,ACTTACAG,-0.299
21,ACTTAGTA,-0.0571
22,GAACCTAC,0.00224
23,ACATCGGG,0.219
24,ATACAGAG,-0.266
25,GCCGCAAC,0.117

row,Sequence,PBM E-score
1,AGTACGTG,-0.138
2,GGTGCCCA,-0.106
3,ATCAACGC,-0.16
4,GCTGACAA,-0.0427
5,AAAATCCC,0.0176
6,CTTGCAAC,-0.201
7,CCTGTGCC,-0.159
8,GATAGCGA,0.0711
9,ATACCGCA,0.284
10,CTGGTCCA,-0.0613
11,CCAGCTAG,-0.36
12,AGAAGAAG,-0.0942
13,CTCAGGCA,0.128
14,CAGTCTCG,-0.0711
15,CTCTACTA,-0.265
16,ATACAGGG,0.0187
17,ATACGCGA,-0.0162
18,AATACGAT,0.0467
19,CCGATGCA,0.242
20,CCGGATCA,0.364
21,GTTGGCGA,0.0633
22,ACACTTAT,0.0354
